T1: recombinant human HER4 (human, UniProt Q15303 26-649, limits assumed)
T1 construct: also called hHER4
T1 sequence (looked up): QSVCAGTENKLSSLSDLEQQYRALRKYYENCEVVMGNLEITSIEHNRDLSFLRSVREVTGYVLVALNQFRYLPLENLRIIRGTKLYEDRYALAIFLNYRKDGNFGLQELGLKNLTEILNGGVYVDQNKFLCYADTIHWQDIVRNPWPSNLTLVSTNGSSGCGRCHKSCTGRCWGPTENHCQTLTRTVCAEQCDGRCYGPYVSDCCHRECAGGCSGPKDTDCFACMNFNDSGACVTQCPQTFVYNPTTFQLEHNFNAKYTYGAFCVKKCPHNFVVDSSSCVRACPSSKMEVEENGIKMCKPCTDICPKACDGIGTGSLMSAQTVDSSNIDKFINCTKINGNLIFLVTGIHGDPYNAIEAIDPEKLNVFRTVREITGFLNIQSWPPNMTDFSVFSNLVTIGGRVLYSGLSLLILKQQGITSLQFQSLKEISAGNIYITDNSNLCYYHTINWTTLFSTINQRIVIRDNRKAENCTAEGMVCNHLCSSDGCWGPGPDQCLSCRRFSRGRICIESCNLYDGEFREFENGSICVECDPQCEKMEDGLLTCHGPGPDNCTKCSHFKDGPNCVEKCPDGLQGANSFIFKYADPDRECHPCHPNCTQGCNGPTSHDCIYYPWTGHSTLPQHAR

T2: recombinant cynomolgus CD3 (cynomolgus, UniProt Q95LI5 22-117)
T2 construct: Bought protein; subunit make-up not described; also called cCD3
T2 sequence (looked up): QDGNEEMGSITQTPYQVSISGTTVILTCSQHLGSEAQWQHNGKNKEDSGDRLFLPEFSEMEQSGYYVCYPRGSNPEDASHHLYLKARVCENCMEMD

B1: iBiTE-sp (EGFR×CD3, SMET5.2 scFv on hSP34 Fab-mFc7.2) (bispecific antibody)
heavy: EVQLVETGGGVVQPGRSLRLSCAASGFTFSSYAMHWVRQAPGKGLEWVAVISYDGSNKYYADSVKGRFTISRDNSKNTLYLQMNSLRAEDTAVYYCARGYVARGDFDYWGQGTLVTVSSGGGGSGGGGSGGGGSDVVMTQSPSTLSASVGDRVTITCRASQSMSRWLAWYQQKPGKGPKLLIYATSTLQSGVPSRFSGSGSGTEFTLTISSLQPEDFATYYCQQLDSFPFSFTFGPGTKVDLKGGGSSEVQLVESGGGLVQPGGSLRLSCAASGFTFNTYAMNWVRQAPGKGLEWVARIRSKYNNYATYYADSVKGRFTISRDDSKNTLYLQMNSLRAEDTAVYYCVRHGNFGNSYVSYFAYWGQGTTVTVSSASTKGPSVFPLAPSSKSTSGGTAALGCLVKDYFPEPVTVSWNSGALTSGVHTFPAVLQSSGLYSLSSVVTVPSSSLGTQTYICNVNHKPSNTKVDKKVEPKS[… human IgG1 Fc with T366L Y407H (EU numbers) …]
light: EIVVTQSPATLSVSPGERATLSCRSSTGAVTTSNYANWVQQKPGQAPRGLIGGANKRAPGVPARFSGSLSGDEATLTISSLQSEDFAVYYCALWYSNLWVFGQGTKLEIKRTVAAPSVFIFPPSDEQLKSGTASVVCLLNNFYPREAKVQWKVDNALQSGNSQESVTEQDSKDSTYSLSSTLTLSKADYEKHKVYACEVTHQGLSSPVTKSFNRGE[… human IgG1 Fc with T366L Y407H (EU numbers) …]
B2: proBiTE-1s1spg (proBiTE-1s1sp with germline reversions in hSP34) (bispecific antibody)
heavy: EVQLVETGGGVVQPGRSLRLSCAASGFTFSSYAMHWVRQAPGKGLEWVAVISYDGSNKYYADSVKGRFTISRDNSKNTLYLQMNSLRAEDTAVYYCARGYVARGDFDYWGQGTLVTVSSGGGSSGGGGSGGGGSEVQLVESGGGLVQPGGSLRLSCAASGFTFNTYAMNWVRQAPGKGLEWVARIRSKYNNYATYYADSVKGRFTISRDDSKNTLYLQMNSLRAEDTAVYYCARHGNFGSSYVSYFAYWGQGTTVTVSSASTKGPSVFPLAPSSKSTSGGTAALGCLVKDYFPEPVTVSWNSGALTSGVHTFPAVLQSSGLYSLSSVVTVPSSSLGTQTYICNVNHKPSNTKVDKKVEPKS[… human IgG1 Fc with T366L Y407H (EU numbers) …]
light: DVVMTQSPSTLSASVGDRVTITCRASQSMSRWLAWYQQKPGKGPKLLIYATSTLQSGVPSRFSGSGSGTEFTLTISSLQPEDFATYYCQQLDSFPFSFTFGPGTKVDLKGSGSGRSDNHGGGGSEIVVTQSPATLSVSPGERATLSCRSSTGAVTTSNYANWVQQKPGQAPRGLIGGANKRAPGVPARFSGSLSGDEATLTISSLQSEDFAVYYCALWYSNLWVFGQGTKLEIKRTVAAPSVFIFPPSDEQLKSGTASVVCLLNNFYPREAKVQWKVDNALQSGNSQESVTEQDSKDSTYSLSSTLTLSKADYEKHKVYACEVTHQGLSSPVTKSFNRGE[… human IgG1 Fc with T366L Y407H (EU numbers) …]
modifications: Biotinylated in the ELISA per paragraph 229; sites not stated.
notes: also called proBiTE-spg
B3: HBiTE-spg (proBiTE-1s1spg with a protease non-cleavable linker) (bispecific antibody)
heavy: B2 heavy
light: DVVMTQSPSTLSASVGDRVTITCRASQSMSRWLAWYQQKPGKGPKLLIYATSTLQSGVPSRFSGSGSGTEFTLTISSLQPEDFATYYCQQLDSFPFSFTFGPGTKVDLKGSGGGGSGGGGSEIVVTQSPATLSVSPGERATLSCRSSTGAVTTSNYANWVQQKPGQAPRGLIGGANKRAPGVPARFSGSLSGDEATLTISSLQSEDFAVYYCALWYSNLWVFGQGTKLEIKRTVAAPSVFIFPPSDEQLKSGTASVVCLLNNFYPREAKVQWKVDNALQSGNSQESVTEQDSKDSTYSLSSTLTLSKADYEKHKVYACEVTHQGLSSPVTKSFNRGE[… human IgG1 Fc with T366L Y407H (EU numbers) …]
modifications: Biotinylated in the ELISA per paragraph 229; sites not stated.
notes: also called HBiBody-spg

The binders below were run against T1, recombinant human HER4 (assay: ELISA, recombinant antigen coated).
Procedure: (§1) ELISA was performed according to standard protocols. […] The plates were washed with PBS containing 0.05% Tween 20. […] The assay was developed at room temperature with TMB substrate (Sigma-Aldrich) and monitored at 450 nm with a microplate reader.
B1: no binding.
B2: no binding.
B3: no binding.

Each binder was assayed against T3, recombinant human EGFR (human, UniProt P00533 part only) (assay: ELISA, recombinant antigen coated).
T3 construct: Bought protein; construct not described; also called hEGFR
Procedure: as §1
B1: binds.
B2: binds.
B3: binds.

These binders were tested against T2, recombinant cynomolgus CD3 (assay: ELISA, recombinant cCD3 coated).
Procedure: as §1
With B1 the EC50 was 1.6 nM.
In the case of B2, the EC50 is reported as 4.5 nM.
Work on B3 yielded an EC50 of 3.8 nM.

These binders were tested against T4, recombinant human CD3 (human, UniProt P07766 23-126) (assay: ELISA, recombinant hCD3 coated).
T4 construct: Bought protein; subunit make-up not described; also called hCD3
T4 sequence (P07766 23-126): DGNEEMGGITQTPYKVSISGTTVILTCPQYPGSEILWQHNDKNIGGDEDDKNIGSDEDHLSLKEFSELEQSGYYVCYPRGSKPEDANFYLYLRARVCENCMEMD
Procedure: as §1
In the case of B1, the EC50 is reported as 1.3 nM.
For B2, the EC50 was 3.4 nM.
Work on B3 yielded an EC50 of 4.5 nM.

— patent US20210388118A1 (ZHEJIANG SHIMAI PHARMACEUTICAL, published 2021)
